{"source": "patent US6252094A", "about": "(The Scripps Research Institute, priority 1999, dated 2001)", "test_system": "cell line panel including leukemia, ovarian, lung, and breast carcinoma cells", "assay": "Cytotoxicity (XTT, 72 hours) against cell line panel", "settings": "2 versus taxol"}
{"smiles": "CC(=O)O[C@H]1C(=O)[C@@]2(C)[C@H]([C@H](OC(=O)c3ccccc3)[C@]3(O)C[C@H](OC(=O)[C@H](Oc4cccc[n+]4C)[C@@H](NC(=O)c4ccccc4)c4ccccc4)C(C)=C1C3(C)C)[C@]1(OC(C)=O)CO[C@@H]1C[C@@H]2O", "note": "[taxol-2'-MPT]", "values": [{"measurement": "differential cytotoxicity profiles", "value": "similar, although some differences were noted"}]}
{"smiles": "CC(=O)O[C@H]1C(=O)[C@@]2(C)[C@H]([C@H](OC(=O)c3ccccc3)[C@]3(O)C[C@H](OC(=O)[C@H](O)[C@@H](NC(=O)c4ccccc4)c4ccccc4)C(C)=C1C3(C)C)[C@]1(OC(C)=O)CO[C@@H]1C[C@@H]2O", "note": "[taxol, reference compound]", "values": [{"measurement": "differential cytotoxicity profiles", "value": "similar, although some differences were noted"}]}
